In PubChem BioAssay (NCI):
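Interpolation was linear, between the two tested concentrations surrounding the appropriate level; five concentrations were tested over 48 hours in 96-well plates. Here, GI50 denotes the concentration required for 50% inhibition of growth. At the TGI there is no net growth.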

Tested on: NCI-H322M lung
Experiment: NCI tumour cell line growth inhibition, 48 h

SMILES	GI50	TGI
C=C1CCC2C3(C)COC(c4ccccc4Br)OC3CCC2(C)C1C/C=C1/C(=O)OCC1OC(C)=O (stereo not given)	3.79 µM	16.5 µM
COCCNc1cc(NC(=O)N2CCCc3cc(CN4CCN(C)CC4=O)c(C=O)nc32)ncc1C#N	> 50 µM	> 50 µM
Cc1[nH]c2ccccc2c1CCNCc1ccc(/C=C/C(=O)NO)cc1	0.0118 µM	0.0949 µM
COc1ccc(C(=O)N(C(=S)OCCOc2ccccc2)c2ccccc2)cc1		> 100 µM
CN(CCCN(C)CCc1ccc(Cl)c(Cl)c1)CCCN1CCCC1		4.21 µM
O=C(CN1CCN(c2ccccc2)CC1)N1CCN(c2nnc(-c3ccc(Cl)cc3)c(-c3ccc(Cl)cc3)n2)CC1	> 100 µM	> 100 µM
c1ccc(C2OCCO2)c(OCCOc2cc(OCCOc3ccccc3C3OCCO3)c(OCCOc3ccccc3C3OCCO3)cc2OCCOc2ccccc2C2OCCO2)c1		> 100 µM
Cc1n[nH]c(=O)n1/N=C\CC/C=N\n1c(C)n[nH]c1=O		> 100 µM
Cc1cn2c(/C=N/Nc3ccccn3)c(-c3ccc(Cl)c([N+](=O)[O-])c3)nc2s1	26 µM	> 50 µM
COc1cc(/C=C/C(=O)c2sc(NNC(C)=O)nc2C)ccc1O		> 100 µM
NC(=S)N/N=C1\c2ccccc2CCC1CCC1(O)CCc2ccccc2C1=O (stereo not given)		> 100 µM
O=C(CCCSc1nc(-c2ccccc2)cc(-c2ccc(Cl)cc2)n1)NO	1.26 µM	11.9 µM
CC(CCC(=O)O)C1CCC2C3C(O)CC4CC(O)CCC4(C)C3CC(O)C12C (stereo not given)		> 100 µM
CCOC(=O)Nc1nn(C)c(=NCc2ccccc2)s1		> 100 µM
COc1cc(C)c(O)c(C(=O)O)c1		> 100 µM
Cc1cc2nc(-c3c(F)cccc3F)n(Cc3c(F)cccc3F)c2cc1C		37.6 µM
C/C(CC1SCCCS1)=C(/C)CC1SCCCS1		> 100 µM
Clc1nc(NCCc2ccccc2)c2ncn(-c3ccccc3)c2n1		> 100 µM
CCC(/C=C/c1ccccc1)=N\Nc1ccc(Cl)c(Cl)c1		> 100 µM
CCOC(=O)C1(C/C=C\CBr)CCCCCCCCCCC1=O (stereo not given)		33.1 µM
COc1cc2c(cc1OC)C(C)N(C)c1c-2c(OC(C)=O)cc2cc(OC)c(OC)cc12 (stereo not given)		> 93 µM
O=C1CCC2(c3ccccc3)Nc3ncccc3N12 (stereo not given)		> 100 µM
Oc1ccc(/C=C/c2ccc3cccc(O)c3n2)cc1O		40 µM
CC(C)c1ccc(Nc2nccc(-c3cnn4ncccc34)n2)cc1	0.952 µM	> 22.3 µM
CC(C)(C#N)c1cc(C(=O)Nc2cc(Nc3ncccc3-c3ncnc4nc[nH]c34)ccc2F)cc(C(F)(F)F)c1		> 10 µM

SMILES	GI50	TGI
O=C1NC(=O)C(COCc2ccccc2)C2=C1SCCC2 (stereo not given)		> 100 µM
Cn1cc(-c2ccc(-c3cn(C)c4ccc(Cl)cc34)s2)c2cc(Cl)ccc21	> 100 µM	> 100 µM
CCCc1cc(=O)n2c(C(=O)Nc3ccccc3OC)c(C(=O)Nc3ccc(F)cc3)sc2n1	45.1 µM	> 160 µM
CC(=O)O[C@H]1CC[C@@]2(C)[C@@H](CC[C@@H]3[C@@H]2CC[C@]2(C)C=C(C=O)C[C@@H]32)C1	15 µM	30.2 µM
CCNCCNc1cc(C2CCCCC2)c(C#N)c2nc3ccccc3n12	2.45 µM	7.06 µM
CS(=O)(=O)Nc1ccc(N=Cc2c(O)[nH]c3ccccc23)cc1	> 20 µM	> 25 µM
CC(=O)Nc1ccc(/C=C/C(=O)c2sc(-c3nc(C)c(C(=O)/C=C/c4ccc(NC(C)=O)cc4)s3)nc2C)cc1		> 100 µM
O=c1c2cn[nH]c2nc2scc(-c3ccc(Cl)cc3)n12		> 100 µM
Cc1ccc(S(=O)(=O)Nn2c(S)c(C#N)c(-c3ccc([N+](=O)[O-])cc3)c(C#N)c2=O)cc1		> 100 µM
C=CCNC(=O)NCCCC(NC(C)=O)C(=O)NCc1ccccc1 (stereo not given)		> 100 µM
CC#CC1C(OC(=O)c2ccccc2)CCCC1(CI)N=[N+]=[N-] (stereo not given)		> 100 µM
Cc1ccc(Nc2nc(NS(=O)(=O)c3cc(C(=O)Nc4ccc(Cl)cc4)c(Cl)cc3S)n[nH]2)cc1		> 100 µM
Cc1ccc(S(=O)(=O)n2c3c(c4ccccc42)CCN2CCC(Br)C[C@@H]32)cc1 (stereo not given in full)		37.2 µM
O=C(c1cccnc1)c1cc(-c2ccccn2)c(=O)n2ccccc12	> 100 µM	> 100 µM
C=CCCCC1CCCNC1=S (stereo not given)		> 100 µM
O=C1Nc2ccccc2/C1=C/c1c(Cl)[nH]c2ccc(O)cc12		23.3 µM
COC1=CC(=O)c2c(O)c3c(c(O)c2C1=O)C=C(C)OC3O (stereo not given)		2.74 µM
O=C(CCCN1CCC2(CC1)CC(=O)N(N1CCCCCC1)C2=O)c1ccc(F)cc1		> 100 µM
NNCCc1n[nH]c(=O)n1N		> 100 µM
CCOc1cc2c(cc1OC(C)=O)C(=O)CC[C@H]1C3CC[C@H](OC(C)=O)[C@@]3(C)CC[C@H]21 (stereo not given in full)		> 100 µM
N#Cc1cc([N+](=O)[O-])ccc1NC(=O)/C(=N/N)C(C(=O)c1ccc(Cl)c(Cl)c1)C1OC(=O)c2ccccc21 (stereo not given)		> 100 µM
FC(F)(F)c1ccc(-c2cnc(Cl)nc2NCc2cc(C(F)(F)F)cc(C(F)(F)F)c2)cc1	3.52 µM	> 100 µM
CC12c3c4cc(Br)cc3Oc3cc(Br)cc(c31)Oc1cc(Br)cc(c12)O4		> 100 µM
Cc1c(Cl)cccc1NC1=C(Cl)C(=O)N(Cc2ccccc2)C1=O	1.22 µM	8.71 µM
C=C1C(=O)O[C@H]2[C@H]3O[C@@H](C[C@@H]12)[C@@]1(C)CC[C@H](O1)C(C)=CCC[C@H]3C		17.5 µM
